Laboratory results as given in PubChem BioAssay AID1745853 (National Center for Advancing Translational Sciences (NCATS), 2022).
Some of the results follow. Further columns of the screen follow, without active or inactive calls.

Assays:
Assay in all cases: Primary Screen for Target Class Profiling of Small Molecule Inhibitors of Methyltransferases
[1] = target: Glycine N-methyltransferase (Homo sapiens) (UniProt Q14749); conditions: purified enzyme, MTase-Glo SAH luminescence; measured here: GNMT inhibition; at 40 µM; stronger effect = lower value
Summary of the method: (§1)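 Each enzyme was reacted with SAM and its substrate, with compounds tested once at 40 uM; SAH formed was read by MTase-Glo luminescence.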

[2] = target: Guanidinoacetate N-methyltransferase (Homo sapiens) (UniProt Q14353); conditions: purified enzyme, MTase-Glo SAH luminescence; measured here: GAMT inhibition; at 40 µM; stronger effect = lower value
Summary of the method: as §1

[3] = target: Histamine N-methyltransferase (Homo sapiens) (UniProt P50135); conditions: purified enzyme, MTase-Glo SAH luminescence; measured here: HNMT inhibition; at 40 µM; stronger effect = lower value
Summary of the method: as §1

[4] = target: Nicotinamide N-methyltransferase (Homo sapiens) (UniProt P40261); conditions: purified enzyme, MTase-Glo SAH luminescence; measured here: NNMT inhibition; at 40 µM; stronger effect = lower value
Summary of the method: as §1

[5] = target: Phenylethanolamine N-methyltransferase (Homo sapiens) (UniProt P11086); conditions: purified enzyme, MTase-Glo SAH luminescence; measured here: PNMT inhibition; at 40 µM; stronger effect = lower value
Summary of the method: as §1
% is scaled to controls: 0 for no effect and ±100 for the full control effect.

Compound | activity change, negative = inhibition [1] [%] | activity change, negative = inhibition [2] [%] | activity change, negative = inhibition [3] [%] | activity change, negative = inhibition [4] [%] | activity change, negative = inhibition [5] [%]
CC1(C(=O)NCc2ccc(F)cc2)Cn2cnc(C(=O)NCCc3ccccc3Cl)c2C(=O)N1C1CC1 (stereo not given) | -0.323 | 1.12 | 3.52 | -1.28 | 2.67
O=C1NC(=NC2CCCC2)C2(CCN([S+](=O)([O-])c3cccc(C(F)(F)F)c3)C2)N1c1cccnc1 (stereo not given) | -6.81 | 0.206 | -1.13 | -0.591 | 1.32
CN1CCCC2(CCN(c3nc4c(cc3C(N)=O)CCC4)C2)C1=O (stereo not given) | -0.926 | -5.74 | -34.7 | -10.3 | 0.029
CN(Cc1ccccc1)Cc1cc(CC2(NC3CCCCC3)COC2)no1 | -0.893 | -1.98 | 0.332 | -0.42 | -0.101
Cc1ccc(CNC(=O)C2(C)Cn3nc(C(=O)NCc4ccc(OC(C)C)cc4)cc3C(=O)N2C)cc1 (stereo not given) | 0.323 | 1.02 | 2.07 | 1.11 | 1.28
O=C1Cc2c(-c3ccccc3OCc3ccccc3)n[nH]c2CN1CC1CCOCC1 | -6.81 | -2.46 | -6.19 | -17.1 | -2.18
COc1cc(/C=C/C(=O)O)ccc1O[C@@H]1O[C@H](CO)[C@@H](O)[C@H](O)[C@H]1O[C@@H]1OC[C@](O)(CO)[C@H]1O | 8.32 | 6.48 | 10.2 | -7 | 2.42
CC(C)NC(=O)c1ccc2c(=O)n(C(C)C)c3nn(CC(=O)c4ccc(Cl)cc4)c(=O)n3c2c1 | 4.54 | 1.34 | 9.19 | 4.17 | 8.06
CCCn1c(=O)c2ccc(C(=O)NC3CCCCC3)cc2n2c(=O)n(Cc3ccc(Cl)cc3)nc12 | -0.146 | 1.71 | 2.25 | -2 | -2.26
CC(=O)O[C@@H]1[C@H](O[C@@H]2OC[C@](O)(CO)[C@H]2O)[C@@H](O[C@@H]2O[C@@H](C)[C@H](O)[C@@H](O[C@@H]3O[C@H](CO)[C@@H](O)[C@H](O)[C@H]3O)[C@H]2O)[C@H](OC(=O)[C@]23CCC(C)(C)C[C@H]2C2=CCC4[C@@]5(C)C[C@H](O)[C@H](O[C@@H]6O[C@H](C(=O)O)[C@@H](O)[C@H](O)[C@H]6O)[C@@](C)(C(=O)O)C5CC[C@@]4(C)[C@]2(C)CC3)O[C@@H]1C (stereo not given in full) | 0.058 | 14.3 | 10.1 | 2.1 | 11.6
O=C(Nc1cccc(F)c1)[C@@H]1C[C@@H](c2cccc(C(F)(F)F)c2)N(CC2CCOCC2)C1 | -1.64 | -6.7 | 0.919 | -11.1 | 2.61
CC(=O)N1CCn2c(nnc2C2CCCN2Cc2ccc(F)cc2F)C1 (stereo not given) | 0.487 | 5.46 | 2.21 | -2.98 | 15.9
Cc1nn(C)c(C)c1S(=O)(=O)N1CCC2(CCC(=O)N(Cc3ccccc3)CC2)CC1 | -5.76 | -2.92 | -0.623 | -4.83 | -1.67
COc1ccc(CN2C(=O)c3cc(C(C)(C)C)nn3CC2(C)C(=O)NC2CCCCC2)cc1 (stereo not given) | -9.82 | -1.93 | -4.77 | -11.4 | -4.17
COCc1cc(CNC(=O)CC(c2ccccc2)c2ccccc2Cl)[nH]n1 (stereo not given) | -0.385 | -6.56 | -0.165 | -1.32 | -0.437
CCn1ncnc1C(C)NC1CCC2(CCNCC2)CC1 (stereo not given) | -5.51 | -5.37 | -3.9 | -9.01 | -4.52
Cc1cn2nc(C(=O)NC3CCCCCC3)cc2c(N2CCSCC2)n1 | -4.98 | -2.39 | -7.67 | -10.5 | -14.7
COc1cccc(Cn2nc3n(C)c(=O)c4ccc(C(=O)NC5CCCC5)cc4n3c2=O)c1 | -6.04 | -8.37 | 2.44 | -11.5 | -4.7
